Measurements as given in patent publication US20260139067A1 (BETH ISRAEL DEACONESS MEDICAL CENTER, published 2026).

Target: T1, recombinant cynomolgus monkey CDCP1 extracellular domain (cynomolgus monkey, UniProt A0A2K5VLA8 30-663)
T1 construct: range 30-663; also called cyno CDCP1 ECD; cynomolgus monkey CDCP1-ECD
Assay: SPR (Biacore T200), antibody captured on anti-human IgG, CDCP1-ECD injected; experiment 2
Method: Specifically, the binding kinetics of anti-CDCP1 antibodies against recombinant human, cynomologus monkey and mouse CDCP1-ECD were determined using surface plasmon resonance (SPR) and a Biacore T200 instrument (GE Healthcare). An anti-human IgG antibody was amine coupled onto a CM5 carboxymethylated dextran sensor chip surface (GE Healthcare), using the manufacturer's recommendations, to densities of approximately 10,000-13,000 response units (RU). Each anti-CDCP1 antibody was diluted to 0.5 μg/mL in 10 mM HEPES pH 7.4, 0.15 M NaCl, 3 mM EDTA, 0.05% P-20 (HBS-EP+) and captured for about 20-23 seconds at a flow rate of 10 μL/min. […] The sensorchip surface was regenerated with three 30 second pulses of 3M MgCl₂ at a flow rate of 50 μL/minute. All injections used HBS-EP+ as both the running and sample buffer and were performed at 25° C. with a data collection rate of 1 Hz. Sensorgrams were double referenced by using both a control surface and buffer injections. Rate constants were determined by fitting the data to a 1:1 model with Biacore T200 evaluation software v3.0 and the equation KD=kd/kₐ.

T1 sequence (A0A2K5VLA8 entry or part of it): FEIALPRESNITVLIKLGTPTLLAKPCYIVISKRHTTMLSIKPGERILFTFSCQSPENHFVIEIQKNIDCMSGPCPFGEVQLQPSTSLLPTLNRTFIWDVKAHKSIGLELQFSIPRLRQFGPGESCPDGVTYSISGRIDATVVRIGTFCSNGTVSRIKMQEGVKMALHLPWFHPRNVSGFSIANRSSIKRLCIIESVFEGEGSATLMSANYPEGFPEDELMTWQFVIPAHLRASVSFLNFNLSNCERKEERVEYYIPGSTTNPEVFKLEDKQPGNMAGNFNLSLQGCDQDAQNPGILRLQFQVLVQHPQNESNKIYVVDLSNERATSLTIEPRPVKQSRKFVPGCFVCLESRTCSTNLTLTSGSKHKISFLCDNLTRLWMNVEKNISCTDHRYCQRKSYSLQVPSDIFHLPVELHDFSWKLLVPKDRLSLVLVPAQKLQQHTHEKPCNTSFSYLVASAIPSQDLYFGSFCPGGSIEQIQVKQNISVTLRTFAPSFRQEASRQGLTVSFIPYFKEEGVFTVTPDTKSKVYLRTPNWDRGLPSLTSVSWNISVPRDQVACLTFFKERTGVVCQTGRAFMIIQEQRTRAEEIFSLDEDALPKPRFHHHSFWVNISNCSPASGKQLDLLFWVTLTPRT

- Kd: 69.5 nM
B1: CP13E10-54HC-89LCv1 (antibody, human IgG1, kappa)
heavy: EVQLVQSGAEVKKPGASVKVSCKASGYTFTSYYMHWVRQAPGQGLEWMGIINPSGGSTSYAQKFQGRVTMTRDTSTSTVYMELSSLRSEDTAVYYCARDGELRHFDHLLDYHYYMDVWGQGTTVTVSS[left out - human IgG1 constant region]
light: EIVMTQSPATLSLSPGERATLSCRASQSVGSYLAWYQQKPGQAPRLLIYDASNRATGIPARFSGSGSGTDFTLTISSLQPEDFAVYYCQQRAQEFTFGQGTKVEIKRTVAAPSVFIFPPSDEQLKSGTASVVCLLNNFYPREAKVQWKVDNALQSGNSQESVTEQDSKDSTYSLSSTLTLSKADYEKHKVYACEVTHQGLSSPVTKSFNRGEC
notes: Human IgG1, kappa; also called germlined CP13E10-54HC-89LCv1
